Reference: ChEMBL document CHEMBL5356990, “Overview of CFTR activators and their recent studies for dry eye disease: a review” (RSC Med Chem, 2023)

Columns and labels:
Assay type in all cases: cell-based
[1] = test system: CC(C)(C)c1cc(C(C)(C)C)c(NC(=O)c2c[nH]c3ccccc3c2=O)cc1O; assay: (§1) Binding affinity at human CFTR expressed in rat FRT cells assessed as Vmax relative to control
[2] = test system: CC/N=C1\S/C(=C\c2ccc3c(c2)OCO3)C(=O)N1CC; assay: as §1; details: filed as opener
[3] = test system: CCOc1ccccc1CC(=O)Nc1nnc(Cc2ccc(OC)c(OC)c2)s1; assay: as §1; details: filed as opener
[4] = test system: CNc1nc(Nc2cccc([N+](=O)[O-])c2)nc(OCC(F)(F)F)n1; assay: as §1; details: filed as opener
[5] = test system: Cc1cc(C)cc(/N=C2/NC(=O)/C(=C/c3ccc(O)cc3)S2)c1; assay: as §1; details: filed as opener
[6] = test system: Nc1ccc([N+](=O)[O-])cc1-c1nc2ccccc2n(Cc2ccccc2)c1=O; assay: as §1; details: filed as opener
[7] = test system: O=C(c1cccs1)N1N=C(c2ccccc2)CC1c1ccccc1[N+](=O)[O-]; assay: as §1; details: filed as opener

“Cystic fibrosis transmembrane conductance regulator (Homo sapiens) (no sequence given)” showed a Vmax [1] of 39%, a Vmax [2] of 65% and a Vmax [3] of 91%. The Vmax [4] was 49%, the Vmax [5] was 89% and the Vmax [6] was 90%. It also gave a Vmax [7] of 94%.
